In article PMC12136788:
Some of the results follow.

B1: chr8:41682716:41682717:-_ENSMUSG00000039431_ENSMUST00000048898|mus_hu|FALSE|FALSE (ssRNA)
RNA: GGGAGUUCUACAGUCCGACGAUCCACAUCGCUGAGCUGCCAGUAAUGAUUAGGGAGGCCCAUCCGCGUGUAUUCUUCACUAAGAUCGAUCAGCACCCAGCCUUGCUCUCUUUCUUCUUUAUCCAGCAUGGGGUUGAAUGAAAACAACAGAGGAUUGAGCAUCA
B2: 113762500_113763388_1254_CDS_ENSMUSG00000033392_ENSMUST00000111838|mouse|control|control (ssRNA)
RNA: GGGAGUUCUACAGUCCGACGAUCAUGAGCCUUGGCACCAGCUGCCGCAUUCACAUCAAUGUCACUUCGAGAACGCUGCAGGCUUCCUGGAAGGGGGUUGGCUUUGCUGCCUCCCACAGAUACUCUUCCAGCUACAGUUGAAGGCAACAGAGGAUUGAGCAUCA
B3: 29488330_29488785_1031_CDS_ENSG00000153339_ENST00000582539|human|control|control (ssRNA)
RNA: GGGAGUUCUACAGUCCGACGAUCUUUUUUAGUUGCAGAAAAUAGAGAUCGACUCAAACCUUUUCUUGAUAUUAGCUGAUCGUUUAAUUGCCUAAUUGUUUUCUCUAUAUGUGGCAAAAGGCCCCGAAAUGUGAACUCUUGUAUCAACAGAGGAUUGAGCAUCA
B4: chr7:54823571:54823572:-_ENSG00000132432_ENST00000352861|hu_mus|hu_hu_hu_mus_False|58_108 (ssRNA)
RNA: GGGAGUUCUACAGUCCGACGAUCUCCCAUUAUAGCAAAUCCUAUAGCUGUAGCCAUGGCAAUCUUCUGGAAUUCUUUUCUAUCAGGUUUGGUGCAUCUUUUAACCAGCCGAAUUGAGUCCUUUACAAACUGCCGGCUGGGCUCCAACAGAGGAUUGAGCAUCA
B5: chr6:42301883:42301884:+_ENSMUSG00000029860_ENSMUST00000070635|mus_mus|motif|central (ssRNA)
RNA: GGGAGUUCUACAGUCCGACGAUCCUGUGGGUGCUGCUUCUCUUGAACUAGGGGCUUCUCCUUCUGCUGAGCAUAGGUGAAGCGGGGGGGCUGAGGGGAGCCUGUGCUCACAGAAGAAGGAGCAUCCGGAGGCACCAUUUUUUGCAACAGAGGAUUGAGCAUCA
B6: chrX:71549400:71549401:+_ENSMUSG00000019087_ENSMUST00000019231|mus_hu|mus_mus_mus_hu_False|88_88 (ssRNA)
RNA: GGGAGUUCUACAGUCCGACGAUCGCAGUAGGAAGAGGGAAGCUCUUCAUCCACUGUCGCUGCAGGGUGGGAAAGCAACAACACGGACACCGUCCCACCCUCAACCCCCCCACUGGCACAGGGUCACACAAUCUGGGUCAAAGACAACAGAGGAUUGAGCAUCA
B7: chr3:128198961:128198962:-_ENSG00000179348_ENST00000341105|hu_mus|FALSE|FALSE (ssRNA)
RNA: GGGAGUUCUACAGUCCGACGAUCUGACUGGACCCAAAAAACGAGUUUCAAAAUAAAACCACUCAUCAGCGGGUUAAGCUUAUGCAGUUUGGUUUUCGCUUUGAGUAUUUUCUUAUUUAUCUUAGAGGGGGAGGGGGCCGAGGGCAACAGAGGAUUGAGCAUCA
B8: chr9:122046315:122046316:+_ENSMUSG00000038145_ENSMUST00000120173|mus_mus|FALSE|FALSE (ssRNA)
RNA: GGGAGUUCUACAGUCCGACGAUCAAGUUUGGUCUGGGUGUCUAUGACUUCAUAGAGACGCACAAUGUUGGGGUGCUGCACUAGUUUCAUGCACCUCACUUCCUGGAAGAGAUGACCAGUGGCUAGAGUGUCCAGCUUCGUCUUCAACAGAGGAUUGAGCAUCA
B9: chr4:103717905:103717906:-_ENSG00000109332_ENST00000394803|hu_mus|FALSE|FALSE (ssRNA)
RNA: GGGAGUUCUACAGUCCGACGAUCUUCAGUGCUAUAUUAAACAGUAUUGGAAGAUAGAUUAACUAAUAGCUCCAAGCCUCCUAACAAUUUAAAUGAAAAUUACAAAAUGUUUUGAGACCCUAUUUUGGAAUACAAAGGGUGUUUCAACAGAGGAUUGAGCAUCA
B10: chr14:62205016:62205017:+_ENSG00000100644_ENST00000337138|hu_mus|FALSE|FALSE (ssRNA)
RNA: GGGAGUUCUACAGUCCGACGAUCCUGAUCUUGAAUCUGGGGCAUGGUAAAAGAAAGUCCCAGUGACUCUGGACUUGAUUCUAAUUUUAAUGCAACCUCUUGAUUCAGUGCAGGAUCAGCACUACUUCGAAGUGGCUUUGGAGUCAACAGAGGAUUGAGCAUCA
B11: chr2:48026839:48026840:+_ENSG00000116062_ENST00000540021|hu_hu|hu_hu_hu_mus_False|8_38 (ssRNA)
RNA: GGGAGUUCUACAGUCCGACGAUCAUAGUGAGCCACUAGCGUCCUAAAUCUGGAACAGUGGCGGUCAUCCGAAAACUGGCCGAUGAAAAACUUGCCCAGUGAAGUAUCCACAAAGCAAACACCAUACGCACGAGUAUGACCAGACAACAGAGGAUUGAGCAUCA
B12: chr1:163112212:163112213:-_ENSG00000143248_ENST00000313961|hu_hu|hu_hu_hu_mus_False|8_48 (ssRNA)
RNA: GGGAGUUCUACAGUCCGACGAUCUUUUAUUAUCAGUAAGAGUGAGUUACAUACUAGGCAAAGUAUUGGAUACAAUAAUCAGGAAACAAACACAAUUGGUCCAGAAUUUAAAACUUUAUGAGCGAAGGCUUACAAAUGGACUUACAACAGAGGAUUGAGCAUCA
B13: chr7:888068:888069:+_ENSG00000164828_ENST00000456758|hu_hu|FALSE|FALSE (ssRNA)
RNA: GGGAGUUCUACAGUCCGACGAUCUUGAACUAAAAAUGAUGAAAAAGAUGAUGCAGUGUAUCUGGCCAGCCACAAAAUCCUAUUCACGUAGAAAGACGCACCGCAUUUUUGAUUCCUGUCCCUAGAAUAAACUCUCGACACGGGCAACAGAGGAUUGAGCAUCA
B14: chr3:94683992:94683993:+_ENSMUSG00000038902_ENSMUST00000107270|mus_mus|motif|central (ssRNA)
RNA: GGGAGUUCUACAGUCCGACGAUCGUUAACGUUGCCAUCGGGACCUGGCAGAACACUAGCCACAAGGAAGGACCGCUGAACGGGCUCUGGGGAGUCCCCAAUGACACCCAGCACCUCUCCCAGCCAGACCAACACCAGCUGAAGCAACAGAGGAUUGAGCAUCA
B15: chr11:87793471:87793472:-_ENSMUSG00000020483_ENSMUST00000020775|mus_mus|mus_mus_mus_hu_False|78_78 (ssRNA)
RNA: GGGAGUUCUACAGUCCGACGAUCUGGACUUGAAAAUAAAAGAAUAAGCUGGAUCCCCCCACCCCUUACAUUGUCAACCCUACACGAGAGUUUUGAAGGCGACUCAUGAAAAUCAGCAGCUCAAACGGCAAUGACCACCCCACCCAACAGAGGAUUGAGCAUCA
B16: chr2:9724813:9724814:-_ENSG00000134308_ENST00000238081|hu_mus|FALSE|FALSE (ssRNA)
RNA: GGGAGUUCUACAGUCCGACGAUCAAUUUUUAUUGGGAAGGAAGUUGUCAACUUAAACAGCAGCAAAUGAAGAAUGCAUAAGGAAACUCCCUGUUGUCACAGAAAGAUGUAACCUCCAGAAUAUGUGACACAGGAGACAUUUCGCAACAGAGGAUUGAGCAUCA
B17: chr9:75414013:75414014:-_ENSMUSG00000032186_ENSMUST00000064433|mus_mus|FALSE|FALSE (ssRNA)
RNA: GGGAGUUCUACAGUCCGACGAUCACUGGUAAGCCAUUAUGACCAGUGGCAUGCAAGAAUUUUACAUGUUUAUGUGCAAUGAAAAAUGUUGCUUGUUUUCUGAAAAAACAUGAAACACGAUUAAGAUAAAGGCUUACUUAAAAUCAACAGAGGAUUGAGCAUCA
B18: chr2:181324804:181324805:-_ENSMUSG00000000823_ENSMUST00000128553|mus_mus|motif|central (ssRNA)
RNA: GGGAGUUCUACAGUCCGACGAUCGCCCCUUACCCCUUGGCACCGCUGAUAGUGGUACUUGAGCCCAUAGAUGCUGGGGAACUCGGGCCAGCACCCUGAGUUUGGACACUUCACCCUUGAGUGUGCCUUGAAUUCAUCUUUCCACAACAGAGGAUUGAGCAUCA
B19: chrX:51640900:51640901:+_ENSG00000179222_ENST00000326587|hu_mus|FALSE|FALSE (ssRNA)
RNA: GGGAGUUCUACAGUCCGACGAUCAGGGGUACUGAUGAGAAUAUACAGAUGCUCUUCUUUGUCGAUUUCCUUCAGCUGGAUUCCAAAUUUCUUCUCCAGGACAAAGCAUGCGCGCUCAAUGAUUUCUGGAUAGACAUCAGUGUACAACAGAGGAUUGAGCAUCA
B20: chr1:66463027:66463028:+_ENSMUSG00000015222_ENSMUST00000114013|mus_mus|mus_mus_mus_hu_True|28_38 (ssRNA)
RNA: GGGAGUUCUACAGUCCGACGAUCUUUUCUUUCAGGAGUGGAAAUUCUGCCUCUCCCGGUUUUAAAAGGCUUUUCUUUUCUAUGUUUCUCAAGAGAUGGUCUCCGAGCAUCCUUCUCAGCUUUCUCCUCUUUAGGAAUAGUUUCCAACAGAGGAUUGAGCAUCA
B21: chr11:86503612:86503613:+_ENSMUSG00000072582_ENSMUST00000108022|mus_hu|motif|central (ssRNA)
RNA: GGGAGUUCUACAGUCCGACGAUCCUGACAGGCUUCAAACACUUGUGAUGGAGGGGUUGUUGUCAUAUCAAAGUCCACCGGGUAAAGUUUUAGGUGACCAGUGACUUUGUCAAUUAGGUCUGCUGGUCCUGGCCCAAUCCCUAGCAACAGAGGAUUGAGCAUCA
B22: 100766528_100781209_1805_CDS_ENSMUSG00000037286_ENSMUST00000129269|mouse|control|control (ssRNA)
RNA: GGGAGUUCUACAGUCCGACGAUCUGCAUGUUCAUGUAACUCACUUUCCAGAAAGAAAAGAACAAGCAUCCUAAUGAGGUUCCCGUUUGGACUGUUCCUUCCUCUCCUCUUCGCUAACGCUUCCUCUGCUUGUGGGUCAUGUCUCAACAGAGGAUUGAGCAUCA

These binders were tested against T1, UNK ZnF1-3 (human, UniProt Q9C0B0 31-174) (assay: nsRBNS (natural sequence RNA bind-n-seq); RBNS binding buffer (assumed for nsRBNS): 25 mM Tris pH 7.5, 150 mM KCl, 3 mM MgCl2, 0.01% Triton X-100, 500 ug/ml BSA, 20 U/ml SUPERase-In, 4 C; UNK is unkempt and MSI1 is Musashi-1; names of the RNAs are library labels; protein concentration not given here; high values mean tight binding).
T1 sequence: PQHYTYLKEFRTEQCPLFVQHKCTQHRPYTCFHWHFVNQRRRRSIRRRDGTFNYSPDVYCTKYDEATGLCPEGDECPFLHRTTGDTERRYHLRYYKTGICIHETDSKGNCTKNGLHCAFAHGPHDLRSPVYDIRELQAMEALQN

Row | Binder | binding signal [enrichment R]
1 | B1 | 1.12
2 | B2 | 1.33
3 | B3 | 0.737
4 | B4 | 0.842
5 | B5 | 1.09
6 | B6 | 1.07
7 | B7 | 1.99
8 | B8 | 0.755
9 | B9 | 1.12
10 | B10 | 0.707
11 | B11 | 1.1
12 | B12 | 1.03
13 | B13 | 1.11
14 | B14 | 1.1
15 | B15 | 1.89
16 | B16 | 1.53
17 | B17 | 0.566
18 | B18 | 0.671
19 | B19 | 0.933
20 | B20 | 0.48
21 | B21 | 0.62
22 | B22 | 0.549
